# The full ranking holds about 33,000 sequences; the median of “E-score (-0.5 to 0.5)” is about -0.012, and the highest 2% start at about 0.29. The list shows a part of the results.
# Biological target: T1, Ybr033w (UniProt P38073)
# T1 sequence: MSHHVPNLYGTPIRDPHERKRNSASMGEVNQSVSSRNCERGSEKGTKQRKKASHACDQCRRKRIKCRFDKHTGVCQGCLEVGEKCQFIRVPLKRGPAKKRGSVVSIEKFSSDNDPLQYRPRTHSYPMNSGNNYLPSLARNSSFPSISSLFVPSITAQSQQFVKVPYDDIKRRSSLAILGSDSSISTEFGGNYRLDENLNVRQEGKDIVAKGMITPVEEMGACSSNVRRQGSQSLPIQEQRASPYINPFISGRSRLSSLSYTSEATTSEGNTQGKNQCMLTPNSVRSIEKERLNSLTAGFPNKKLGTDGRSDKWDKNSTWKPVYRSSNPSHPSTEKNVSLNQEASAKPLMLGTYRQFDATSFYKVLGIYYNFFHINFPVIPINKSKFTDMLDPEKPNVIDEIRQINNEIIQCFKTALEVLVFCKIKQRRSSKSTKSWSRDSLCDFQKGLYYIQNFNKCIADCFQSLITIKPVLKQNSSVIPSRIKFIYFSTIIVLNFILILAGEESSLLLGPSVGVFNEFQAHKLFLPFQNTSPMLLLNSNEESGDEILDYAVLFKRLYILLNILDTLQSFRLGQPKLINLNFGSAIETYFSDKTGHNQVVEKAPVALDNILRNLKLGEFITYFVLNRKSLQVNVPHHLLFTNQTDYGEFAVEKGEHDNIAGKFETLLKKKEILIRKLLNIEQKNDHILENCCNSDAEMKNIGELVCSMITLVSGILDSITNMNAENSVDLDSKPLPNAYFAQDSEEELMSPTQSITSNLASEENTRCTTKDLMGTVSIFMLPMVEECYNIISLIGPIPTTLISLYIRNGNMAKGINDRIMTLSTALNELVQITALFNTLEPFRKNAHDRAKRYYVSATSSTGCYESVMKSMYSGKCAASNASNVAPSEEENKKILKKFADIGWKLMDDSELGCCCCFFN
# Test: PBM E-score (8-mer binding enrichment) (E-score (-0.5 to 0.5)); higher = stronger / more preferred TF binding; most listed sequences are background and not binding sites
# Details: protein concentration: 200 nM; construct: GST-full length
# Protocol: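 Universal 'all 10-mer' protein binding microarrays (Agilent AMADID 015681) probed with GST-tagged S. cerevisiae TFs (full-length or DBD) made by in vitro transcription/translation (PURExpress), about 100-200 nM. Bound TF was detected with fluorescent anti-GST. Each ungapped 8-mer (which stands for itself and its reverse complement) is scored by the PBM enrichment score (E-score), a modified Wilcoxon-Mann-Whitney statistic from -0.5 to +0.5, computed with the Universal PBM Analysis Suite. Scale: above 0.35 generally sequence-specific binding.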
row,Sequence,PBM E-score
1,CAGTCGAA,-0.0676
2,GATCTGAA,0.00071
3,GGCCATCA,-0.0151
4,ACCTTCAT,-0.0827
5,ACGCTAAA,0.0831
6,AATACTCC,0.0328
7,CAGTGCCC,-0.144
8,CTTATCCC,-0.16
9,GAACTAAC,0.00327
10,CGTCGGGC,-0.336
11,CGATAACC,0.0582
12,GCCTCTAA,-0.0298
13,CCTTTCCA,-0.125
14,ATCCATCA,0.0199
15,GGTCAGAC,-0.277
16,CTGCCCGC,-0.153
17,GACCTTTA,0.08
18,GCACGGGA,-0.15
19,GAAGCGTA,-0.0763
20,CGGTTATA,-0.092
21,AACTGGAT,0.237
22,AATCTATC,0.137
23,ACTGAGGC,-0.0826
24,AAGAGGAT,0.00953
25,ACAAGATC,-0.0214

row,Sequence,PBM E-score
1,CTATGCAG,-0.066
2,AAAATTGT,0.261
3,AGTCATTC,0.0855
4,ATGCGACG,0.119
5,AGGAACAC,0.193
6,CTTACGAA,0.0413
7,TACTGGCA,-0.0764
8,GAGGGCAA,-0.0744
9,AACCTACA,0.185
10,TACTCGGA,0.176
11,CACCTAGA,-0.0844
12,ATTCATCA,0.171
13,ACAGCCAG,0.0325
14,CGATGGAA,-0.00848
15,AACACTGG,-0.072
16,ACTCTTCC,-0.0223
17,CGGAAGGC,-0.179
18,ACGCGGCC,-0.213
19,GAGTAGAA,0.0517
20,GAAGACCA,-0.012
21,ATAAGAGC,0.139
22,AGGTAGTA,0.149
23,ACGCAGCG,-0.207
24,CAGCCCGA,-0.0945
25,GAGCAGCC,-0.319

row,Sequence,PBM E-score
1,GTATGTCA,0.191
2,AGCCGTAA,0.0522
3,GCGCACCA,0.104
4,CCTGCTAA,-0.127
5,TCTAAACA,0.0786
6,AGCGGTGA,-0.159
7,AGTAATAA,0.18
8,ACTAAGAG,-0.148
9,CGCATGCA,-0.0641
10,AGGCCGTA,0.0121
11,GAAATGCC,0.0374
12,AGAAAGAC,-0.0153
13,CAGAACAG,0.104
14,GATTTCGA,-0.0493
15,CCCGGGAG,-0.0399
16,AATAGTGC,0.123
17,CAGTACAC,0.0183
18,CTACATCC,-0.0766
19,CATAAGTC,-0.0198
20,CCCCAACC,-0.145
21,GGACGTCC,-0.0997
22,TCCCTGCA,-0.00716
23,GACGTGCC,-0.225
24,GTTGAGAA,0.145
25,ATTAACGG,0.159

row,Sequence,PBM E-score
1,ATGGCCTA,-0.0527
2,AGGGGGTC,-0.351
3,GACCAATC,-0.0934
4,GTGTCAGA,0.0247
5,ACTGCTCT,-0.0433
6,GTACTGCA,-0.0582
7,AACTCGTC,0.122
8,ACTTCTCG,0.153
9,AAGACTGT,-0.21
10,AAGTTGAG,0.0874
11,GGATTCGA,-0.0863
12,ACGAAACC,0.0619
13,CAGGTCGA,0.141
14,GCACCGAA,0.0459
15,AATTCGAG,0.0369
16,AGAAAAAA,0.207
17,ATCCTTGG,0.117
18,CCATTTAA,0.226
19,CACTCAGC,-0.0478
20,AAAGCGAA,0.0358
21,ATCCATTC,0.143
22,CAGGGTTC,-0.231
23,CATTGGGG,-0.146
24,AGTCTAGG,-0.126
25,AGGGGCAA,-0.304

row,Sequence,PBM E-score
1,AGTGTTGA,0.197
2,AAGTGATG,0.0148
3,TATTTAAA,0.301
4,GTAAGACA,0.0549
5,AGTTCCAA,0.0213
6,AATTGCAC,-0.0897
7,CGTACTGC,-0.151
8,GGTATTAC,0.132
9,GGGACCGA,-0.148
10,AAACAAGG,-0.0653
11,AATACCCA,0.104
12,CAGTACCG,-0.274
13,TAAGCAAA,0.179
14,GTTTGAGA,0.034
15,GCAACGGA,0.0218
16,CTGTCTAC,0.0329
17,GACGTTTA,-0.0502
18,GAAAAATC,0.381
19,AGGATGTA,0.0979
20,ACTGGCCG,-0.321
21,CGTAGAAC,-0.059
22,ATAGAAGC,0.12
23,ACAATCTC,0.0789
24,AACTCACC,-0.0571
25,AGCGGTAG,-0.212

row,Sequence,PBM E-score
1,CAGGGGGC,-0.357
2,GCCCGCGA,-0.233
3,ACCTGTAT,-0.065
4,AAAATCGG,-0.0385
5,GTCCTGGA,-0.196
6,GACGATGA,-0.00274
7,CCGCGTTC,0.0353
8,CGCGATGC,-0.29
9,AGTTCCCA,-0.0242
10,ACAGGTGA,0.0969
11,AGGGTCCG,-0.273
12,CATATCGG,0.0616
13,CTTCTCCA,-0.214
14,CAAATATA,0.281
15,TGTGTCAA,0.0461
16,CAGGACGC,-0.122
17,ACCTTCCG,-0.032
18,AAATGCCC,-0.147
19,ACGATTTG,0.151
20,CTATTAGC,0.133
21,AACTGGGT,-0.00618
22,CTGGCTTA,-0.15
23,GGTTCGCA,-0.181
24,AATTTTAA,0.285
25,ATTAAATG,0.347

row,Sequence,PBM E-score
1,GCGGTGCA,-0.0907
2,ATAGCCAA,0.17
3,AATGAGTA,0.268
4,GGTAAAGA,0.168
5,CTGTACCC,-0.135
6,CGTCTGAA,-0.0988
7,GGATGGAA,-0.0537
8,AATGGCCT,-0.0295
9,AGGAGCCT,-0.342
10,CACTGGAG,-0.14
11,ACAGCGTC,-0.0704
12,ATCAGCAG,0.0244
13,CGGACGCC,-0.258
14,GCTTGGGA,-0.232
15,ACATCCGG,0.0515
16,ACACTCCC,-0.0919
17,CATTTTCA,0.0453
18,GGTCCGTA,-0.0488
19,CAGGAATA,0.219
20,ATTTAATC,0.352
21,TTCCGAAA,0.196
22,CCAAGTTA,0.19
